Data reported in article PMC10892984, “Novel Antineoplastic Inducers of Mitochondrial Apoptosis in Human Cancer Cells” (Molecules, 2024).

Tested on: NCI-H322M
Details: for GI50 / CC50: Homo sapiens, 48 h; for CC50: read-out: LC50; for TGI: non-small-cell lung cancer, mutant p53, 48 h

In the case of `c1cc(CNC23CC4CC(CC(C4)C2)C3)cc(C[N+](Cc2cccc(CNC34CC5CC(CC(C5)C3)C4)c2)(Cc2cccc(CNC34CC5CC(CC(C5)C3)C4)c2)Cc2cccc(CNC34CC5CC(CC(C5)C3)C4)c2)c1` (stereo not shown) [Compound 1, tetrakis{3-[(tricyclo[3.3.1.1^3,7]decan-1-ammonio)methyl]benzyl}ammonium pentachloride], the GI50 is reported as 1.26 µM, the CC50 is reported as 16 µM and the TGI is reported as 5.10 µM.
For `COc1cc2c(c(OC)c1OC)-c1ccc(NNC(N)=S)c(=O)cc1C(NC(C)=O)CC2` [Compound 2, N-[(aS,7S)-10-(2-carbamothioylhydrazinyl)-1,2,3-trimethoxy-9-oxo-5,6,7,9-tetrahydrobenzo[a]heptalen-7-yl]acetamide monohydrate × ⅔ (ethyl acetate)], the GI50 was 0.619 µM, the CC50 was greater than 100 µM and the TGI was greater than 100 µM.
Work on `COc1cc2c(c(OC)c1OC)-c1ccc(NNC(=S)N(Cc3cccc(C[N+](Cc4cccc(CNC56CC7CC(CC(C7)C5)C6)c4)(Cc4cccc(CNC56CC7CC(CC(C7)C5)C6)c4)Cc4cccc(CN(C(=S)NNc5ccc6c(cc5=O)C(NC(C)=O)CCc5cc(OC)c(OC)c(OC)c5-6)C56CC7CC(CC(C7)C5)C6)c4)c3)C34CC5CC(CC(C5)C3)C4)c(=O)cc1C(NC(C)=O)CC2` [Compound 3, [(bis{3-[(tricyclo[3.3.1.1^3,7]decan-1-ylamino)methyl]benzyl}ammonio)bis(methanediylbenzene-3,1-diylmethanediyl)]di-2-[(aS,7S)-7-(acetylamino)-1,2,3-trimethoxy-9-oxo-5,6,7,9-tetrahydrobenzo[a]heptalen-10-yl]-N-(tricyclo[3.3.1.1^3,7]decan-1-yl)hydrazinecarbothioamide chloride pentahydrate] yielded a TGI of 7.03 µM.
